Hit rate of the full screen: of about 43,000 compounds, about 200 (0.47%) were called active. Roughly 12% stayed inconclusive and do not appear here. Calls come from the whole dose curve; as a rule, active = well fitted cell-killing curve with a large enough effect; inconclusive = small, poorly fitted or top-dose-only effect, or effect the other way; inactive = flat fitted curve, though single readings scatter. This is one part of the list.
Assay: Cell viability qHTS assay in S16 Pmp22-F2sN cells; note: nearly all actives have a fitted effect of over 65% in size
Details: S16 Pmp22-F2sN Schwann cells viability, CellTiter-Glo, 24 h; series mostly up to 57.5 µM; activity change, negative = cytotoxicity: at the top concentration
How it was run: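 Used to flag compounds lowering reporter output through toxicity, this quantitative HTS measures ATP-based CellTiter-Glo luminescence in S16 Pmp22-F2sN Schwann cells after 24 h compound exposure at 37C.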
% is set by controls: 0 for no effect and ±100 for the full control effect.

Compound	activity change, negative = cytotoxicity
CC(C)(C)c1ccc(C(=O)N(Cc2ccc(F)cc2)Cc2ccco2)cc1	inactive: -10.4%
CCCNC(=O)c1ccc(Cn2c(=O)c3cccn3c3cccnc32)cc1	inactive: -2.15%
CCc1ccccc1NC(=O)c1ccc2c(c1)nnn2C1CCCC1	inactive: 29.4%
CCOc1ccccc1NC(=O)CN1C(=O)COc2ccc(S(=O)(=O)NC3CCCC3)cc21	inactive: 5.13%
Cc1ccc(CNC(=O)Cc2ccc(NC(=O)N3CCSc4ncccc43)cc2)cc1	inactive: -4.61%
CC(C)(C)NC(=O)N1CCC(C(=O)O)CC1	inactive: 2.46%
O=C(Nc1cccc(C(F)(F)F)c1)c1cccc(C(=O)Nc2cccc(C(F)(F)F)c2)c1	inactive: -4.16%
Cc1ccc(N2CCN(S(=O)(=O)c3ccc(Cl)c4ccccc34)CC2)c(C)c1	inactive: 3.21%
CCOC(=O)c1c(C)c(-c2ccccc2)n(CC(=O)Nc2cc(C)cc(C)c2)c1C	inactive: -7.9%
COCCCNC(=O)CCCn1c(=O)c2cccn2c2ccccc21	inactive: 12.7%
COc1ccccc1CNC(=O)CCC1N=C2c3ccccc3N=C(SCc3ccc(Cl)cc3)N2C1=O (stereo not given)	inactive: -24.7%
Cc1ccc(S(=O)(=O)NC2(C(F)(F)F)C(=O)Nc3c2c(=O)[nH]c(=O)n3-c2ccccc2)cc1 (stereo not given)	inactive: -1.46%
Cc1ccc(CNS(=O)(=O)c2cc3[nH]c(=O)c(=O)[nH]c3cc2C)cc1	inactive: 13.4%
Cc1cn2c(=O)cc(COc3ccccc3NC(=O)c3ccco3)nc2s1	inactive: 7.78%
Cc1c(C(=O)NCc2cccc(Cl)c2)sc2nc3n(c(=O)c12)CCC3	inactive: -8.45%
Cc1ccc(C(=O)Nc2ccc3nc(SCC(=O)N4CCCc5ccccc54)sc3c2)cc1	inactive: -18.1%
O=C(COC(=O)c1cc(-c2ccccc2)nc2ccccc12)c1ccc(Br)cc1	inactive: -4.39%
CSc1nc2sc3c(c2c(=O)n1Cc1ccccc1)CCC(C(C)(C)C)C3 (stereo not given)	inactive: 4.01%
NC(=O)c1nc(-c2ccc(F)c(F)c2)nc2c1[nH]c(=O)n2-c1cccc(Cl)c1	inactive: 3.18%
CCN1CCN(CCCNC(=O)c2cnn(-c3ccc(C)cc3C)c2C2CCN(C(=O)OC(C)(C)C)CC2)CC1	inactive: 25.8%
O=S(=O)(c1ccc(Br)cc1)c1nnn2c1nc(N1CCOCC1)c1sccc12	inactive: 0.994%
CCc1cnc2c(c1SCC(=O)c1ccccc1)c(=O)n(C)c(=O)n2C	inactive: 1.92%
CCOc1cc(C(=O)OCc2cc(=O)n3nc(CC)sc3n2)cc(OCC)c1OCC	inactive: 2.22%
CCC(=O)N1CCc2cc(Br)cc(S(=O)(=O)N3CCCC(C(=O)Nc4ccc(C(C)C)cc4)C3)c21 (stereo not given)	inactive: 13.3%

Compound	activity change, negative = cytotoxicity
CC1CCC(C(=O)NC(C(=O)OCC(=O)c2ccccc2)C(C)C)CC1 (stereo not given)	inactive: -0.448%
CCOc1sc2nc(C)n(CC(=O)Nc3cccc(C)c3)c(=O)c2c1C	inactive: 0.245%
COc1ccc(-c2ccc(NS(=O)(=O)c3ccc(OC)c(OC)c3)cc2)nn1	inactive: -4.06%
COC(=O)c1ccccc1NC(=O)c1c(C)oc2ncn(C)c(=O)c12	inactive: 5.56%
COc1ccc(OCc2nc3ccccc3n2Cc2ccccc2Cl)cc1	inactive: -3.33%
CCCCC(=O)N(c1ccc2oc(C)c(C(C)=O)c2c1)S(=O)(=O)c1ccc(F)cc1C	inactive: -25.5%
CCc1ccc(CN(Cc2ccco2)c2cnc(S(C)(=O)=O)nc2C(=O)Nc2cccc(C)c2)cc1	inactive: -3.14%
COC(=O)c1ccc(NC(=O)CSc2nc(=O)[nH]c3c2CCCC3)cc1	inactive: 4.85%
CCOC(=O)COc1ccc([N+](=O)[O-])cc1-c1ccnc2cc(-c3ccc(Cl)cc3)nn12	inactive: 14.3%
CNC(=O)C1CCC(Cn2c(=O)c3sccc3n(CC(=O)NCc3ccccc3)c2=O)CC1 (stereo not given)	inactive: -4.72%
COCCCNC(=O)c1oc2c(c1C)-c1nn(Cc3ccccc3Cl)cc1CC2	inactive: -3.48%
Cc1ccccc1C(=O)Nc1sc2c(c1C(=O)NCc1ccco1)CCC(C(C)(C)C)C2 (stereo not given)	inactive: 1.42%
Cc1ccc(SCCNC(=O)CN(c2ccccc2)S(=O)(=O)N(C)C)cc1	inactive: -0.595%
Cc1cccc(-c2noc(-c3ccccc3OCC(=O)Nc3ccc([N+](=O)[O-])cc3)n2)c1	inactive: 12.6%
COc1ccccc1CNc1nc(-c2ccco2)nn1S(=O)(=O)c1ccc2ccccc2c1	inactive: 5.41%
N#Cc1ccc(C(=O)Nc2cc3nn(-c4ccccc4)nc3cc2Cl)c(F)c1	inactive: 3.83%
CCCC(=O)NCC1(N(C)C)CCCCC1	inactive: -2.73%
Cc1ccc(Cl)cc1NC(=O)c1cnc(N2CCCCC2)c2ccccc12	inactive: -2.21%
Cn1c(=NC(=O)c2ccc(S(=O)(=O)N3CCCc4ccccc43)cc2)sc2cc(F)ccc21	inactive: 2.18%
CC(C)OCCCn1c(=O)c2ccccc2n2c(-c3ccc(F)cc3)nnc12	inactive: 4.62%
COc1ccc(S(=O)(=O)N(CC(=O)Nc2ccccc2Br)Cc2ccccc2)cc1	inactive: -6.21%
Cc1cccc(C(=O)Nc2c(-c3ccccc3)nc3cc(C)ccn23)c1	inactive: -7.26%
COc1ccc(NC(=O)C(=O)NCCc2csc(-c3ccc(Cl)cc3)n2)cc1OC	inactive: 5.01%
CCOc1cc2sc(N3CCC(C(=O)Nc4ccc(C)cc4C)CC3)nc2cc1Br	inactive: -9.15%

Compound	activity change, negative = cytotoxicity
COc1ccccc1NC(=O)C(=O)NCC(c1ccc2c(c1)OCO2)N1CCN(C)CC1 (stereo not given)	inactive: -2.16%
CCN1CCN(c2ncc3c(n2)CCN(Cc2cc(F)cc(F)c2)C3)CC1	inactive: 5.04%
COc1ccc(-c2nc3scc(CCNS(=O)(=O)c4ccc(C)cc4)n3n2)cc1	inactive: -13.3%
COc1ccc(CNC(=O)C(=O)NCC(c2cccs2)S(=O)(=O)c2ccc(F)cc2)cc1 (stereo not given)	inactive: 23.2%
COc1ccc(CN(CCC(c2ccc3c(c2)OCO3)c2ccccc2OC)C(C)=O)cc1 (stereo not given)	inactive: 3.9%
CCOCCCn1c(=N)c(S(=O)(=O)c2ccc(C)cc2)cc2c(=O)n3cccc(C)c3nc21	inactive: 10.9%
CCOc1ccc(N(CC(=O)Nc2ccc(F)cc2F)S(=O)(=O)c2c(C)[nH]c(=O)[nH]c2=O)cc1	inactive: -1.83%
O=C(NCC(c1ccc2c(c1)OCO2)N1CCN(c2ccccc2)CC1)c1ccccc1F (stereo not given)	inactive: 10.4%
CCOC(=O)c1ccc(OCC2c3cc(OC)c(OC)cc3CCN2C(=O)Cc2ccc(F)cc2)cc1 (stereo not given)	inactive: 2.23%
CC(=O)N1CCCc2cc(S(=O)(=O)N(C)CC(=O)Nc3ccc(F)cc3Cl)ccc21	inactive: -6.79%
Cc1cc(O)c(C(c2ccc(F)cc2)N2CCCCC2)c(=O)n1Cc1ccco1 (stereo not given)	inactive: 11.1%
O=C(Nc1cccc(C(=O)N2CCCCC2)c1)c1nsc2ccccc12	inactive: -2.53%
Cc1cc(Nc2cccc(C(F)(F)F)c2)nc2ccc(NC(=O)c3ccc(N(C)C)cc3)cc12	inactive: -14.9%
Cc1ccc(NC(=O)c2sc3ccccc3c2Cl)cc1	inactive: -1.98%
Cc1ccc(CN2C(=O)c3ccccc3C2C(=O)NC2CCCCCC2)cc1 (stereo not given)	inactive: 21.2%
Cc1cccn2c(=O)c(/C=C(\C#N)c3nc4ccccc4n3C)c(Oc3ccc(Br)cc3)nc12	inactive: -4.53%
O=C(CN1CCN(c2ccc(Cl)cc2)CC1)Nc1ccc(F)cc1F	inactive: 10.9%
Cc1ccc(NC(=O)CCCn2nc(C)c3c(C)n(-c4ccccc4)nc3c2=O)cc1Cl	inactive: 0.987%
COc1ccc(CNC(=O)CCn2nc(C)c3c(C)n(-c4ccccc4)nc3c2=O)cc1OC	inactive: -7.81%
CCC(CC)C(=O)Nc1cccc(-c2nc3cccnc3s2)c1C	inactive: -22.3%
CCOc1ccc(CNC(=O)C2CCCN(c3nc4c(C)cc(C)cc4s3)C2)cc1 (stereo not given)	inactive: 5.93%
COc1ccc(-n2nc3ccc(NC(=O)c4cc5ccccc5o4)cc3n2)cc1Cl	inactive: 17.8%
CC1(C)O[C@H]2[C@@H](O1)[C@@H](C(=O)Nc1ccccc1O)O[C@@H]1OC(C)(C)O[C@@H]12	inactive: -10.4%
CCOc1cc(C2C(C(=O)OC)=C(C)NC3=C2C(=O)c2ccccc23)ccc1O (stereo not given)	inactive: -20.5%

Compound	activity change, negative = cytotoxicity
Cc1ccc(C(C)C)c(OCC(=O)Nc2c(C(=O)c3ccccc3)oc3ccccc23)c1	inactive: 4.39%
Cc1cccc(/C=C/c2onc(C)c2S(=O)(=O)N2CCC(C(=O)N3CCC(C)CC3)CC2)c1	inactive: 18.8%
CCc1ccccc1NC(=O)C1=CC(c2ccc(OC)c(OC)c2)=NS(=O)(=O)N1C	inactive: -3.09%
CCOC(=O)c1ccc(-n2c(N)c(C(=O)OC)c3nc4ccccc4nc32)cc1	inactive: 3.09%
Cc1cccc(C)c1OCC(=O)NCC1(N2CCOCC2)CCCCC1	inactive: -7.49%
CC1CCCN(c2csc3ccc(F)cc3c2=O)C1 (stereo not given)	inactive: -6.64%
COc1ccc(OC(=O)c2nc(SCc3ccc(C)cc3)ncc2Cl)cc1	inactive: 11.9%
Cc1ccc(NC(=O)Cn2c(=O)n(Cc3ccccc3)c(=O)c3c(C)c(C)sc32)c(C)c1	inactive: 21%
O=C(CN1C(=O)COc2ccc(S(=O)(=O)N3CCCCC3)cc21)NCc1ccc(F)cc1	inactive: 12.7%
CCCOc1ccc(C(=O)Nc2cccc(-c3nc4ccccc4[nH]3)c2)cc1	inactive: -13.1%
Cc1ccc(-c2nc(C)c(CCNC(=O)C(=O)Nc3ccc4c(c3)OCCO4)s2)cc1	inactive: 23.2%
CCc1nn2c(=O)cc(COC(=O)c3ccccc3NC(=O)COc3ccccc3C)nc2s1	inactive: 40.2%
COc1ccc(-c2nn3c(-c4ccc(OC)cc4)nnc3c3ccccc23)cc1	inactive: 0.0963%
CC1(C)C(=O)N(CC(=O)Nc2ccc(Cl)cc2)c2ccccc21	inactive: -3.83%
CCC(C)NC(=O)c1cc2c(Cl)nc3ccc(C)cc3c2s1 (stereo not given)	inactive: 1.86%
CCc1ccc(C2C(C(=O)Nc3ccccc3)=C(C)Nc3c(C(=O)Nc4ccc(C)cc4)cnn32)cc1 (stereo not given)	inactive: -15.6%
CCc1ccc(S(=O)(=O)c2cn(C)c3cc(N4CCCCC4C)c(F)cc3c2=O)cc1 (stereo not given)	inactive: 2.54%
COc1cc(OC)cc(-c2nc3n(n2)C(c2ccccc2F)C(C(=O)Nc2cccnc2)=C(C)N3)c1 (stereo not given)	inactive: -19.4%
Cc1ccc(S(=O)(=O)NCC(c2ccc(N(C)C)cc2)N2CCCC2)cc1 (stereo not given)	inactive: 3.71%
Cc1cc(C)cc(NC(=O)C2CCCN(c3nnc(C)c4c(C)n(-c5ccccc5)nc34)C2)c1 (stereo not given)	inactive: 8.93%
O=C(c1ccco1)N(Cc1cccnc1)c1nc2ccc(F)cc2s1	inactive: -4.71%
Cc1ccc(-n2c(CCC(=O)O)ccc2-c2cccs2)cc1C	inactive: -0.658%
CCOC(=O)C1CCN(C(c2ccccc2)c2c(O)cc(C)n(Cc3ccco3)c2=O)CC1 (stereo not given)	inactive: 9.4%
